Test results taken from PMC7819943, “Rice protein-binding microarrays: a tool to detect cis-acting elements near promoter regions in rice”.
Some of the results follow.

These sequences were tested against T1, OsWOX13 (Oryza sativa, UniProt Q5QMM3 1-267) (assay: protein-binding microarray (RPBM); PBS, 2% BSA, 51.3 ng/ul salmon testes DNA, 50 uM zinc acetate, 200 nM TF, 25 C, 1 h; high values mean tight binding). Details: protein: recombinant; tags: N-terminal polyhistidine and DsRed monomer fusion (pET32a); label: CyDye5-dUTP incorporated in the synthesized complementary strand; 3' TTTTT single-stranded linker to array surface; dsDNA, one strand shown.
T1 sequence: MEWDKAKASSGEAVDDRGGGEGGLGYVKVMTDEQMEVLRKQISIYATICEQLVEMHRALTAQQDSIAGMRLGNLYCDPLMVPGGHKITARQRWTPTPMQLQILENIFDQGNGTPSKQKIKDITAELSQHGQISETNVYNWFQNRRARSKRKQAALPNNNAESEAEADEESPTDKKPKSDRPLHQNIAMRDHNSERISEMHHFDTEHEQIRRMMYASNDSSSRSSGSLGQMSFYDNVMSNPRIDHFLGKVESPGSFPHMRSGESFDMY
Summary of the method: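 Polyhistidine-tagged DsRed fusions of transcription factors, joined at the N-terminus, were expressed in E. coli BL21-CodonPlus and isolated on Ni–NTA. They were incubated at 200 nM for 1 h at 25 °C on a custom Agilent array, double-stranded and BSA-blocked, in PBS with 2% BSA, salmon testes DNA and 50 µM zinc acetate. The binding signal is per-feature fluorescence intensity (arbitrary units) read on an Axon 4000B scanner after washing.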

Sequence | binding signal
GATTTATTGACATCTATATGAATATAGACATTGATAAAAGCGGAGTCACCTAGTGCAG | 8710 fluorescence intensity (a.u.)
GTATAATTTGCTAAATTTTCACAATGGCAGGTGGCATTGTCGGAGTCACCTAGTGCAG | 28100 fluorescence intensity (a.u.)
ATGAGTGATAACTAATTTCTCGTATTGACTCATGAGAGATCGGAGTCACCTAGTGCAG | 12700 fluorescence intensity (a.u.)
TTAAAAGTTAAAGCAATTTAATCAAGTGAATTAATGATGACGGAGTCACCTAGTGCAG | 4150 fluorescence intensity (a.u.)
TTTGATGAATCCTGATTCCACTATCGTCGTCGTCGTCATCCGGAGTCACCTAGTGCAG | 5200 fluorescence intensity (a.u.)
TGGTATTAACGTATGATTGATTGAGTTTTAATTATTAGAACGGAGTCACCTAGTGCAG | 37400 fluorescence intensity (a.u.)
TTTAAATGGGCAATACACTGACGGGCTTTGTAGCTGTTTGCGGAGTCACCTAGTGCAG | 10000 fluorescence intensity (a.u.)
AAGATTGCCAACCAGATTCGCTCTGCTCTCGTAGCCACTTCGGAGTCACCTAGTGCAG | 3620 fluorescence intensity (a.u.)
GAATGGTGATTGCAATCAGAATCTAGGTAGGCCGTCGGTGCGGAGTCACCTAGTGCAG | 51100 fluorescence intensity (a.u.)
GCGGCGTAATTGTAGTCAGCACTACCGATCAGCCCCTATTCGGAGTCACCTAGTGCAG | 5580 fluorescence intensity (a.u.)
GGAATTGAAATTGGCTTATGCATGCATATGTTCCATTTGACGGAGTCACCTAGTGCAG | 16200 fluorescence intensity (a.u.)
AGTGATAGATCATGTGTGTTCAGTTATGGCCCTCATGGGACGGAGTCACCTAGTGCAG | 14100 fluorescence intensity (a.u.)
CCAGTTGAAATCACGCATTTGACAGCTTAATTTACTCTGTCGGAGTCACCTAGTGCAG | 9540 fluorescence intensity (a.u.)
ACTAATTCTCCTTCCATAATTAAATATACTTCCGTACTTTCGGAGTCACCTAGTGCAG | 6590 fluorescence intensity (a.u.)
TCCAAATTCCTGTAACAGAGTTGACATAAGTAGTTGTTTGCGGAGTCACCTAGTGCAG | 3460 fluorescence intensity (a.u.)
TATTTATAATTAGTATATAAACATGTGATATGATAGATACCGGAGTCACCTAGTGCAG | 15900 fluorescence intensity (a.u.)
TAGTTGAATAGGTAATTAATCATTTTAACATTAATAATGACGGAGTCACCTAGTGCAG | 10800 fluorescence intensity (a.u.)
CTAACACCACAGAATGTTAATTAGCTCACCCGACAACTGGCGGAGTCACCTAGTGCAG | 3280 fluorescence intensity (a.u.)
AACAAACAGATGAAACAAATCAGTGAGATCCATCAAAAGCCGGAGTCACCTAGTGCAG | 7060 fluorescence intensity (a.u.)
ACTAACTCTAAATCATTTATAGTCAATCTAATAGCCAATTCGGAGTCACCTAGTGCAG | 15200 fluorescence intensity (a.u.)
ACTAAATTATAGCAGCCAAGAGCGAATCGCCTCTGGCCTCCGGAGTCACCTAGTGCAG | 6500 fluorescence intensity (a.u.)
AATTCTAATTGGGGAGCATTTAAAGGCTGGGTTTTAGTGGCGGAGTCACCTAGTGCAG | 20100 fluorescence intensity (a.u.)
GTCAATAGTATTGATTGATAATATATACTCGAGATAATTTCGGAGTCACCTAGTGCAG | 35900 fluorescence intensity (a.u.)
ACGTTTATTGATGGTGGACCTAAATCACAAGGAACATCCTCGGAGTCACCTAGTGCAG | 9050 fluorescence intensity (a.u.)
GACTTGATAATTAAACAGGCAGTACCAATATTCCAAGCCACGGAGTCACCTAGTGCAG | 22700 fluorescence intensity (a.u.)
ATTGTGATTTACTTTCGTAGAGATATAATTGAGCCACTATCGGAGTCACCTAGTGCAG | 12500 fluorescence intensity (a.u.)
GAACTTTATTAACTGATAATCAGCCGTGATCAAATTGCACCGGAGTCACCTAGTGCAG | 28000 fluorescence intensity (a.u.)

Sequence | binding signal
CTAATTAAACAAGAAGCTGATTAACTTGTCATCGGAGAGACGGAGTCACCTAGTGCAG | 8710 fluorescence intensity (a.u.)
CATAATTTTCGAGCGACTCGCCTAATCAACATATTCATTGCGGAGTCACCTAGTGCAG | 7930 fluorescence intensity (a.u.)
GTCTCAACGATGATAGATTAGCGTGCAACTAATCGGCAGACGGAGTCACCTAGTGCAG | 10100 fluorescence intensity (a.u.)
GCTCCACAATTAATAAATTCCCGTATTATTTAATTCATTCCGGAGTCACCTAGTGCAG | 4140 fluorescence intensity (a.u.)
TTAATTAAATAATTAGCTAATCTCTCTTACACACAAAACGCGGAGTCACCTAGTGCAG | 34500 fluorescence intensity (a.u.)
GATGTATGATTGGTCTTTGTGTGATGTAAGTTGGCAATAACGGAGTCACCTAGTGCAG | 24800 fluorescence intensity (a.u.)
CGGTGATGAATGTCGTGTGAGATTGATATGATCGGGAGGGCGGAGTCACCTAGTGCAG | 14700 fluorescence intensity (a.u.)
GTCCTAAATTGCTACAACCACTTCAGAATTCTGCATGGTGCGGAGTCACCTAGTGCAG | 12600 fluorescence intensity (a.u.)
CTGAAATTAAATTTAGAAGTTATAGCTCTACCAAACAGGCCGGAGTCACCTAGTGCAG | 28400 fluorescence intensity (a.u.)
TTGCAATTGCCAATTTCTTTATTATATTGTTGGTTTAACTCGGAGTCACCTAGTGCAG | 16700 fluorescence intensity (a.u.)
CATCATCAATCTATCAATTACTATTTCGCATACTATTATACGGAGTCACCTAGTGCAG | 18200 fluorescence intensity (a.u.)
AAATCAAATTAATTTTATTAAATGTAACAATGAATATATTCGGAGTCACCTAGTGCAG | 19700 fluorescence intensity (a.u.)
GTAAATCAATAAAATCATTGGAACCACGAAACAAGGTCAACGGAGTCACCTAGTGCAG | 6080 fluorescence intensity (a.u.)
TGAATATAAAATTTGCAATCACTTGATAACATTTGTATCACGGAGTCACCTAGTGCAG | 7760 fluorescence intensity (a.u.)
GGAGGGAGTAATAGTCAGTGATTGGCTGGGTGGATAGAATCGGAGTCACCTAGTGCAG | 17700 fluorescence intensity (a.u.)
ACCCAATCAAATCCTAAGTTGCATTAATCCAACCGCAATTCGGAGTCACCTAGTGCAG | 9080 fluorescence intensity (a.u.)
TTACTATATAATTAGCACGTATAAATAGCCATCGCACATGCGGAGTCACCTAGTGCAG | 11600 fluorescence intensity (a.u.)
TTGATAATTTTGGTTATAAATCTCTTGTTGTATGATACATCGGAGTCACCTAGTGCAG | 9520 fluorescence intensity (a.u.)
CCGTTTGATTGTTTGTCTGGCGTTAATTTTCGCGAACTGCCGGAGTCACCTAGTGCAG | 45900 fluorescence intensity (a.u.)
TTAAATCATTGATCAATATGTAGATACACAATCGGCACGACGGAGTCACCTAGTGCAG | 16500 fluorescence intensity (a.u.)
ATTTTAATTTTGAATTTCAGTTACTTCTAAATTGAATTCCCGGAGTCACCTAGTGCAG | 18300 fluorescence intensity (a.u.)
GCTAATTTGTCAAAATTTTAACATTGCTAAAATTTGATATCGGAGTCACCTAGTGCAG | 38600 fluorescence intensity (a.u.)
CCGTTACATTGTTCCAATTTTAATTAAACTTCCAATTTTACGGAGTCACCTAGTGCAG | 6400 fluorescence intensity (a.u.)
TTCAAAATTGACGTTGTTGTTTGGCCGTGTTTCCATTACACGGAGTCACCTAGTGCAG | 15900 fluorescence intensity (a.u.)
GTTGATGGGCAGCTTAATTACGGCCCGCCTGTTTAGCCAACGGAGTCACCTAGTGCAG | 17500 fluorescence intensity (a.u.)
TAACTTTGATAGACACAATATAATACAAATACACTGACAACGGAGTCACCTAGTGCAG | 16500 fluorescence intensity (a.u.)
AAGCTCTTCTTTCAATTAACATATTTCAGAAGGACTTATCCGGAGTCACCTAGTGCAG | 3920 fluorescence intensity (a.u.)
